Consider 53 compounds from PubChem BioAssay AID1347073 (National Center for Advancing Translational Sciences (NCATS), 2019).

Out of some 45,000 compounds screened, about 200 (0.44%) were called active. Roughly 7% stayed inconclusive and do not appear here. Calls come from the whole dose curve; as a rule, active = well fitted activation curve with a large enough effect; inconclusive = small, poorly fitted or top-dose-only effect; inactive = no such curve, though single readings can be large or run the other way. The list shows a part of the results.

This assay in a line: qHTS of TDP-43 Inhibitors: NCGC Sytravon Library Screen. Note: 0% is about no effect; nearly all actives have a fitted effect of over 55% in size. The following applies: yeast TDP-43 toxicity rescue, BacTiter-Glo growth, 24 h; series mostly up to 46.1 µM; growth rescue (activation): at the top concentration. An outline of the steps:
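TDP-43-expressing yeast, pregrown in raffinose, seeded at OD600 0.02 in galactose medium with compound for 24 hr at 30 deg C. Growth read by BacTiter-Glo luminescence, so rescue of toxicity appears as activation.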
Background: In qHTS, concentration-response curves come from the screen itself.
On to `Cc1ccc(Nc2nc(C)cs2)cc1`, for which the “growth rescue (activation)” value is inactive: 14.9%. Consider `CN(C)C(CNC(=O)C1CCCN1C(=O)c1cccs1)c1ccccc1` (stereo not drawn), for which the “growth rescue (activation)” value is inactive: -7%. On to `O=C(COc1ncnc2ccccc12)Nc1ccc(S(=O)(=O)N2CCOCC2)cc1`, for which the “growth rescue (activation)” value is inactive: -6.59%. Turning to `Cc1ccc(NC(=O)COC(=O)CC2CC3CCC2C3)cc1S(=O)(=O)N1CCOCC1` (stereo not drawn), the “growth rescue (activation)” value was inactive: 23.8%. For the compound `O=C(NN=C1CCCCC1)c1cc(-c2ccccc2)n[nH]1`, the “growth rescue (activation)” value is inactive: 0.728%. On to `O=C(NCc1ccccc1)c1ccc(-c2cn[nH]c2)c2ccoc12`, for which the “growth rescue (activation)” value is inactive: -25%. With `COc1ccccc1Oc1ccc(N/C=C/C(=O)c2ccc(C)o2)cc1` the figure was inactive: -3.67%; with `COc1cccc(NC(=S)N(Cc2ccc(C(=O)O)cc2)Cc2ccc(OC)c(OC)c2)c1`, inactive: -15.5%. With `COc1cc(/C=C/C(=O)O)cc(S(=O)(=O)NCCCC(=O)O)c1OC` the figure was inactive: -6.95%.

As to `O=C(C1=C[C@@H]2[C@H]3C(=O)N(c4cccc(Cl)c4)C(=O)[C@H]3[C@@H](C(=O)c3ccc(Cl)cc3)N2C=C1)c1ccccc1`, the “growth rescue (activation)” value was inactive: 2.98%. In the case of `COc1ccc2[nH]c(=O)c(CNC3CCCCC3)cc2c1`, the “growth rescue (activation)” value was inactive: -1.03%. With `COc1ccc(NC(=S)N2CCOCC2)c(OC)c1` the figure was inactive: 14.7%; with `Cc1cc(=O)[nH]c(N/N=C/c2ccc(OC(=O)c3cccnc3)cc2)n1`, inactive: -10.8%. The result for `CCCCN(CC)CCNC(=O)CN1C(=O)COc2ccc(S(=O)(=O)N3CCCC3)cc21` reads inactive: 6.98%. Regarding `Cc1ccc(C(=O)N2CCC(C(=O)NCc3ccco3)CC2)cc1`, the “growth rescue (activation)” value is inactive: -6.75%.

On to `O=C(CCNC(=O)c1ccccc1Cl)Nc1cccc(S(=O)(=O)N2CCCCC2)c1`, for which the “growth rescue (activation)” value is inactive: 14.9%.

As to `COc1ccc(CCC(=O)Nc2ccc(S(=O)(=O)N3CCOCC3)cc2)cc1`, the “growth rescue (activation)” value is inactive: 14.4%. With `O=C(NC1CCCCCC1)c1ccc(Br)o1` the figure was inactive: 10.8%; with `CC(=O)Nc1ccc(NC(=O)c2ccc(-n3c(C)ccc3C)cc2)cc1`, inactive: 8.8%.

Turning to `COc1cc(/C=N/Nc2ccc(F)cc2F)cc(OC)c1O`, the “growth rescue (activation)” value is inactive: 10.5%. With `CC1CC(C)CN(C(=O)Cc2c(C(=O)O)[nH]c3ccc(Cl)cc23)C1` (stereo not drawn) the figure was inactive: -1.34%; with `CCCN1CCN(c2ncnc3c2nnn3Cc2ccccc2)CC1`, inactive: 20.8%; with `COC(=O)c1c([N+](=O)[O-])c(OC)c(OC)c(OC)c1[N+](=O)[O-]`, inactive: 14.9%. With `CCOC(=O)c1sc(=S)n(-c2ccccc2)c1C` the figure was inactive: 11.3%; with `CCCNC(=O)C1(C)CCN(C(=O)c2ccc(OC(F)F)cc2)C1` (stereo not drawn), inactive: -0.0296%. With `CCCCn1c(-c2cccc(F)c2)nc2c1c(=O)[nH]c(=O)n2CC(C)C` the figure was inactive: 1.05%; with `COc1ccc(CCN(Cc2nc3ccccc3c(=O)[nH]2)C(=O)C2CC2)cc1`, inactive: 5.31%; with `COc1cc(F)ccc1-c1csc(C(NC(C)=O)c2ccc(F)c(F)c2)n1` (stereo not drawn), inactive: 3.42%.

In the case of `O=C(CSc1nccc(=O)[nH]1)Nc1cccc2ccccc12`, the “growth rescue (activation)” value was inactive: 6.98%.

Consider `Cc1ccc(C(=O)OC(C)CN2C(C)CCCC2C)cc1` (stereo not drawn), for which the “growth rescue (activation)” value is inactive: 22.4%. The result for `CCCc1nc2nc(C)c(NS(=O)(=O)c3ccc(Cl)cc3)c(=O)n2[nH]1` reads inactive: -0.174%; that for `O=C(CSc1nnc(SCc2ccc(Cl)cc2)s1)N/N=C/c1ccc(C(=O)O)cc1`, inactive: 14.4%; that for `CCOC(=O)C1=C(N)Oc2c(oc(CO)cc2=O)C1c1ccc(Cl)cc1` (stereo not drawn), inactive: -14.2%. With `O=C(C1=C(O)C(=O)N(CC2CCCO2)C1c1cccc(Cl)c1)c1ccco1` (stereo not drawn) the figure was inactive: -9.59%; with `OC[C@H]1O[C@H](c2nc(-c3nc(-c4cccc(-n5cccc5)c4)no3)cs2)C[C@@H]1O`, inactive: 3.4%; with `Cn1c(=O)c2c(-c3cccc(Br)c3)c(C#N)c(N)nc2n(C)c1=O`, inactive: 28.2%.

For the compound `CCOc1ccc(N(CC(=O)NCc2ccc(Cl)cc2)S(=O)(=O)c2ccccc2)cc1`, the “growth rescue (activation)” value is inactive: 8.2%. As for `N/C(=N\c1nc2ccccc2o1)NC(=O)/C=C/c1ccccc1`, the “growth rescue (activation)” value was inactive: 13%. With `Cc1cc(OCc2nc(-c3ccncc3)no2)cc(C)c1Cl` the figure was inactive: 3.36%.

Take `Fc1ccc(NC(=S)N2CCN(c3cccc(C(F)(F)F)c3)CC2)cc1`: the “growth rescue (activation)” value is inactive: 0.326%. With `Cc1cccc(C)c1NC(=O)CNC(=O)c1cnccn1` the figure was inactive: 10%; with `CCOC(=O)C(C)(C)NS(=O)(=O)c1ccc(Cl)c([N+](=O)[O-])c1`, inactive: 6.49%; with `CC(C)(C)C(=O)NCc1ccc(C(=O)CN2C(=O)NC3(CCCC3)C2=O)s1`, inactive: 20.7%. The result for `O=[N+]([O-])c1cc(CN(CCO)CCO)ccc1O` reads inactive: 16%. With `O=C(Nn1cc(C(=O)N2CCN(c3ccccc3F)CC2)c2ccccc2c1=O)c1cnccn1`, the “growth rescue (activation)” value was inactive: -4.09%. In the case of `CSc1nnc(NC(=O)c2nc(S(=O)(=O)Cc3ccccc3F)ncc2Cl)s1`, the “growth rescue (activation)” value is inactive: 12.7%.

As to `COc1ccc(Cc2nnc(NC(=O)c3cccs3)s2)cc1`, the “growth rescue (activation)” value is inactive: -10.9%. The result for `O=S(=O)(NCCOCCNS(=O)(=O)c1ccccc1)c1ccccc1` reads inactive: 9.5%. Consider `CCc1nc2nc(C)c(NS(=O)(=O)c3cccs3)c(=O)n2[nH]1`, for which the “growth rescue (activation)” value is inactive: 8.19%. `O=C(N/N=C/c1c(Cl)cccc1Cl)C(=O)NC1CC1`: the “growth rescue (activation)” value was inactive: 11.5%. The result for `Cn1c(N)c(C(=O)COC(=O)CC(NC(N)=O)c2ccc(Cl)cc2)c(=O)n(C)c1=O` (stereo not drawn) reads inactive: 17.7%; that for `Cc1ccc(-c2cc(C(F)(F)F)c(C#N)c(=O)[nH]2)cc1`, inactive: -11.2%; that for `CC1CCN(C(=O)Cn2c(=O)n(Cc3ccco3)c(=O)c3sccc32)CC1`, inactive: 9.87%.
